Columns and labels:
Experiment in all cases: […]
Sec5 = target: T1, Sec5 (S. cerevisiae, UniProt P89102 1-971)
T1 sequence: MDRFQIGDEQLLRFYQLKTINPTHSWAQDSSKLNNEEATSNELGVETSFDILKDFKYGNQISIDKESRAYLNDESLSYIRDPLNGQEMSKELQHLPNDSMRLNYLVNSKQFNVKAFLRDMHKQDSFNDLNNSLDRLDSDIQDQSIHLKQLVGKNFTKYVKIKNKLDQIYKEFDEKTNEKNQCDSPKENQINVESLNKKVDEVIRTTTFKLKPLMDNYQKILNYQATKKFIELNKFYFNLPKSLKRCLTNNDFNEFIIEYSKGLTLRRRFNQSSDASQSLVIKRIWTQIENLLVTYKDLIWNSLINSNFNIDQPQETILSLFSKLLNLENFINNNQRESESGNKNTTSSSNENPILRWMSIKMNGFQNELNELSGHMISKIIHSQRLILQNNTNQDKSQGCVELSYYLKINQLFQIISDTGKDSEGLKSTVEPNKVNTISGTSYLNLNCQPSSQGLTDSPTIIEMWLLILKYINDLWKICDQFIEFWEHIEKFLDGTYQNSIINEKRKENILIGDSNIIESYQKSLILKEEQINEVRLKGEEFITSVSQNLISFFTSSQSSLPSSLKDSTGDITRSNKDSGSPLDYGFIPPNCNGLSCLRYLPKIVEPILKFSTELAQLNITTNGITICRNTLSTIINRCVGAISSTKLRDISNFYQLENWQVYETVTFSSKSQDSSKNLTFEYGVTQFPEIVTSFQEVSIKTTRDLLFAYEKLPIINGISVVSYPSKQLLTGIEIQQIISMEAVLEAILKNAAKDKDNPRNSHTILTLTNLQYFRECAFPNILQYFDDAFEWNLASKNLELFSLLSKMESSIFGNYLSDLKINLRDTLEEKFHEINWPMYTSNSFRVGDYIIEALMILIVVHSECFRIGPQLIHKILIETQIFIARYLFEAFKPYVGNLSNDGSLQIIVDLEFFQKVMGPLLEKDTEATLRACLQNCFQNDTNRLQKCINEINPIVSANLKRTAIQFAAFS

Sec10 = target: T2, Sec10 (S. cerevisiae, UniProt Q06245 1-871)
T2 sequence: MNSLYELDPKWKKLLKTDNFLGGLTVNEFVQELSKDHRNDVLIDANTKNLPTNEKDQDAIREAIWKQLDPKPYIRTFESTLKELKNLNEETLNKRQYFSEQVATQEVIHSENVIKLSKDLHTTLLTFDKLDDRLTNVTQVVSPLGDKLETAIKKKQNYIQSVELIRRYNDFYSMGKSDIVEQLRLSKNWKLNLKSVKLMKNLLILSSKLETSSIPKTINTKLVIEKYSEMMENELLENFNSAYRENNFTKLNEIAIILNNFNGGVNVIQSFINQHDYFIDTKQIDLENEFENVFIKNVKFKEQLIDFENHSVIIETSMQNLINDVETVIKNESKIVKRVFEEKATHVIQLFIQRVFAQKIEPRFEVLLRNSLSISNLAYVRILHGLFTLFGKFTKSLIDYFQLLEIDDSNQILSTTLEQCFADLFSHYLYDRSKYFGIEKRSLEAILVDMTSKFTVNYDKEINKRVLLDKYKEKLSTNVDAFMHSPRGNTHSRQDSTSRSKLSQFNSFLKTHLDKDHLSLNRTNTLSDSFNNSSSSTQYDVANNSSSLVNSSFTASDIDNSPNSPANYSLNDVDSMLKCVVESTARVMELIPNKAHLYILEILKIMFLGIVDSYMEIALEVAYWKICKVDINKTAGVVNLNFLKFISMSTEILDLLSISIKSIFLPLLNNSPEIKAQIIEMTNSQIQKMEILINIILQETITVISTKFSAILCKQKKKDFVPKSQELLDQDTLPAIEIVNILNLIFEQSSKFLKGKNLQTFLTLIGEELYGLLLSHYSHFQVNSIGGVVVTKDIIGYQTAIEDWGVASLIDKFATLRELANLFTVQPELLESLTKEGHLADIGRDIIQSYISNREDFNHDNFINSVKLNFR

Sec15 = target: T3, Sec15 (S. cerevisiae, UniProt P22224 1-910)
T3 sequence: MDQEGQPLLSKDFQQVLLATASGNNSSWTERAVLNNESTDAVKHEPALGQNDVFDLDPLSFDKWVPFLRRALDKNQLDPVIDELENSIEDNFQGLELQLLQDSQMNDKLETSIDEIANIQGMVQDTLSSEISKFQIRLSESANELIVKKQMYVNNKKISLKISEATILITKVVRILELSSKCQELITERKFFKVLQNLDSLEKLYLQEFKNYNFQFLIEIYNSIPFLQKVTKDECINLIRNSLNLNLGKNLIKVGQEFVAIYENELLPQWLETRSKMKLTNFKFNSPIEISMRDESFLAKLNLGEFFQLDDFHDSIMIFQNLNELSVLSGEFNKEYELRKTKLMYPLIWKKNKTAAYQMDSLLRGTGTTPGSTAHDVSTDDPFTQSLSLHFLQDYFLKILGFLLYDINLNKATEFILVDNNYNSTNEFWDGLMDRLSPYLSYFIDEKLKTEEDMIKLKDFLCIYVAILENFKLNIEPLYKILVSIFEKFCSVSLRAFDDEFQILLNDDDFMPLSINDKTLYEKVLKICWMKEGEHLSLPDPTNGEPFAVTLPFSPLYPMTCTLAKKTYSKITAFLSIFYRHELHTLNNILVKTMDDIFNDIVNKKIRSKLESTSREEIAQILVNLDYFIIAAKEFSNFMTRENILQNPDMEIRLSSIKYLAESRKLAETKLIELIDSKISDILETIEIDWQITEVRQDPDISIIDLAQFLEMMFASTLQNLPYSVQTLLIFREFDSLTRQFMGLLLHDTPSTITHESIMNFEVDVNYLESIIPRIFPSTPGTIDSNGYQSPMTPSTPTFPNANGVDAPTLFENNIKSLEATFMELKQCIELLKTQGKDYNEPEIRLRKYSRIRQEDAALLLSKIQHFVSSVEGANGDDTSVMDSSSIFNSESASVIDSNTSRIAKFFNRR

Exo84 = Exo84 (S. cerevisiae, UniProt P38261 1-753)

Measured: binding result

Sequence of Exo84 (P38261 whole entry): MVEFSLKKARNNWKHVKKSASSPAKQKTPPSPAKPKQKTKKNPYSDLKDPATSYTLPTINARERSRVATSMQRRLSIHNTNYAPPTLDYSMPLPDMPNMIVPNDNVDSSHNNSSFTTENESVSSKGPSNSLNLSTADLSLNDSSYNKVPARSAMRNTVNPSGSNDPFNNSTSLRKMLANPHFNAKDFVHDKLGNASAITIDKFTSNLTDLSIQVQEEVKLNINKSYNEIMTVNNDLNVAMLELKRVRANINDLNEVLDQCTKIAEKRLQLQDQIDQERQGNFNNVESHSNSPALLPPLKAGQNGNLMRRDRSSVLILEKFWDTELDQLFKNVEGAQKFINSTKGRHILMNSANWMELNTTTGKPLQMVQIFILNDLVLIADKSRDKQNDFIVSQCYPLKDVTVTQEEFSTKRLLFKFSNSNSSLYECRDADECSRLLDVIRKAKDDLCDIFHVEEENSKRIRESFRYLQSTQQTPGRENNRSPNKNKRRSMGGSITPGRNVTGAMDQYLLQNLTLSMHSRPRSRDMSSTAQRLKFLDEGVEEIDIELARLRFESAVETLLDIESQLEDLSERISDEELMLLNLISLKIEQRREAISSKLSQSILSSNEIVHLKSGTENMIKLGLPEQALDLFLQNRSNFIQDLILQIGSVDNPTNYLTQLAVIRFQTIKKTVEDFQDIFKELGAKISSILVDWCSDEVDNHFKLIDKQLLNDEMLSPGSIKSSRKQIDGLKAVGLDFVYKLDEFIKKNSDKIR

B1: Exo70 (natural protein)
chain: MPAEIDIDEADVLVLSQELQKTSKLTFEINKSLKKIAATSNQSSQLFTPILARNNVLTTLQRNIESTLNSVASVKDLANEASKYEIILQKGINQVGLKQYTQVVHKLDDMLEDIQSGQANREENSEFHGILTHLEQLIKRSEAQLRVYFISILNSIKPFDPQINITKKMPFPYYEDQQLGALSWILDYFHGNSEGSIIQDILVGERSKLILKCMAFLEPFAKEISTAKNAPYEKGSSGMNSYTEALLGFIANEKSLVDDLYSQYTESKPHVLSQILSPLISAYAKLFGANLKIVRSNLENFGFFSFELVESINDVKKSLRGKELQNYNLLQDCTQEVRQVTQSLFRDAIDRIIKKANSISTIPSNNGVTEATVDTMSRLRKFSEYKNGCLGAMDNITRENWLPSNYKEKEYTLQNEALNWEDHNVLLSCFISDCIDTLAVNLERKAQIALMPNQEPDVANPNSSKNKHKQRIGFFILMNLTLVEQIVEKSELNLMLAGEGHSRLERLKKRYISYMVSDWRDLTANLMDSVFIDSSGKKSKDKEQIKEKFRKFNEGFEDLVSKTKQYKLSDPSLKVTLKSEIISLVMPMYERFYSRYKDSFKNPRKHIKYTPDELTTVLNQLVR
binds: all assays above

Source: article PMC5971111 (Nature structural & molecular biology, 2018)
